Measurements from the GPR68 mutational scans of Howard et al. (2025).

B1: GPR68, Q15743 (parent)
chain: MGNITADNSSMSCTIDHTIHQTLAPVVYVTVLVVGFPANCLSLYFGYLQIKARNELGVYLCNLTVADLFYICSLPFWLQYVLQHDNWSHGDLSCQVCGILLYENIYISVGFLCCISVDRYLAVAHPFRFHQFRTLKAAVGVSVVIWAKELLTSIYFLMHEEVIEDENQHRVCFEHYPIQAWQRAINYYRFLVGFLFPICLLLASYQGILRAVRRSHGTQKSRKDQIQRLVLSTVVIFLACFLPYHVLLLVRSVWEASCDFAKGVFNAYHFSLLLTSFNCVADPVLYCFVSETTHRDLARLRGACLAFLTCSRTGRAREAYPLGAPEASGKSGAQGEEPELLTKLHPAFQTPNSPGSGGFPTGRLA

Columns and labels:
[1] = variants of: B1; test: cAMP reporter score (Enrich2 score, wild type = 0); higher = more signal; HEK293T, FACS bins; conditions: modulator: ogerin
[2] = variants of: B1; test: surface expression score (Enrich2 score, wild type = 0); higher = more signal; HEK293T, FACS bins

| Variant | cAMP reporter score ([1]; pH 6) | cAMP reporter score ([1]; pH 6.5) | surface expression score [2] |
| --- | --- | --- | --- |
| MGNITADNSSMSCTIDHTIHQTLAPVVYVTVLVVGFPANCLSLYFGYLQIKARNELGVYLCNLTVADLFYICSLPFWLQYVLQHDNWSHGDLSCQVCGILLYENIYISVGFLCCISVDRYLAVAHPFRFHQFRTLKAAVGVSVVIWAKELLTSIYFLMHEEVIEDENQHRVCFEHYPIQAWQRAINYYRFLVGFLFPICLLLASYQGILRAVRRSHGTQKSRKDQIQRLVLSTVVIFLACFLPYHVLLLVRSVWEASCDFAKGVFNQYHFSLLLTSFNCVADPVLYCFVSETTHRDLARLRGACLAFLTCSRTGRAREAYPLGAPEASGKSGAQGEEPELLTKLHPAFQTPNSPGSGGFPTGRLA [A267Q] | -0.332 | -0.974 |  |
| MGNITADNSSMSCTIDHTIHQTLAPVVYVTVLVVGFPANCLSLYFGYLQIKARNELGVYLCNLTVADLFYICSLPFWLQYVLQHDNWSHGDLSCQVCGILLYENIYISVGFLCCISVDRYLAVAHPFRFHQFRTLKAAVGVSVVIWAKELLTSIYFLMHEEVIEDENQHRVCFEHYPIQAWQRAINYYRFLVGFLFPICLLLASYQGILRAVRRSHGTQKSRKDQIQRLVLSTVVIFLACFLPYHVLLLVRSVWEASCDFAKGVFNAYHFSLLLTSFNCVADIVLYCFVSETTHRDLARLRGACLAFLTCSRTGRAREAYPLGAPEASGKSGAQGEEPELLTKLHPAFQTPNSPGSGGFPTGRLA [P283I] | -0.639 | -1.34 | -0.289 |
| MGNITADNSSMSCTIDHTIHQTLAPVVYVTVLVVGFPANCLSLYFGYLQIKARNELGVYLCNLTVADLFYICSLPFWLQYVLQHDNWSHGDLSCQVCGILLYENIYISVGFLCCISVDRYLAVAHPFRFHQFRTLKAAVGVSVVIWAKELLTSIYFLMHEEVIEDENQHRVCFEHYPIQAWQRAINYYRFLVGFLFPICLLLASYQGILRAVRRSHGTQKSRKDQIQRLVLSTVVIFLACFLPYHVLLLVRSVWEASCDFAKGVFNAYHFSLLLTSFNCVADPVLYCFVSETTHRDLARLRGACLAFLTCSRTGRAREAYPLGAPEASGKSGAQGEEPELLTKLHPAFQTPNSPGSGGFPQGRLA [T361Q] | 0.177 | -0.343 | 0.979 |
| MGNITADNSSMSCTIDHTIHQTLAPVVYVTVLVVGFPANCLSLYFGYLQIKARNELGVYLCNLTVADLFYICSLPFWLQYVLQHDNWSHGDLSCQVCGILLYENIVISVGFLCCISVDRYLAVAHPFRFHQFRTLKAAVGVSVVIWAKELLTSIYFLMHEEVIEDENQHRVCFEHYPIQAWQRAINYYRFLVGFLFPICLLLASYQGILRAVRRSHGTQKSRKDQIQRLVLSTVVIFLACFLPYHVLLLVRSVWEASCDFAKGVFNAYHFSLLLTSFNCVADPVLYCFVSETTHRDLARLRGACLAFLTCSRTGRAREAYPLGAPEASGKSGAQGEEPELLTKLHPAFQTPNSPGSGGFPTGRLA [Y106V] |  | -0.432 | -0.289 |
| MGNITADNSSMSCTIDHTIHQTLAPVVYVTVLVVGFPANCLSLYFGYLQIKARNELGVYLCNLTVADLFYICSLPFWLQYVLQHDNWSHGDLSCQVCGILLYENIYISVGFLCCISVDRYLAVAHPFRFHQFRTLKAAVGVSVVIWAKTLLTSIYFLMHEEVIEDENQHRVCFEHYPIQAWQRAINYYRFLVGFLFPICLLLASYQGILRAVRRSHGTQKSRKDQIQRLVLSTVVIFLACFLPYHVLLLVRSVWEASCDFAKGVFNAYHFSLLLTSFNCVADPVLYCFVSETTHRDLARLRGACLAFLTCSRTGRAREAYPLGAPEASGKSGAQGEEPELLTKLHPAFQTPNSPGSGGFPTGRLA [E149T] |  | -0.426 | -1.07 |
| MGNITADNSSMSCTIDHTIHQTLAPVVYVTVLVVGFPANCLSLYFGYLQIKARNELGVYLCNLTVADLFYICSLPFWLQYVLQHDNWSHGDLSCQVCGILLYENIYISVGFLCCISVDRYLAVAHPFRFHQFRTLKAAVGVSVVIWAKELLTSIYFLMHEEVIEDENQHRVCFEHYPIQAWQRAINYYRFLVGFLFPICLLLASYQGILRAVRRSHGTQKSRKDQHQRLVLSTVVIFLACFLPYHVLLLVRSVWEASCDFAKGVFNAYHFSLLLTSFNCVADPVLYCFVSETTHRDLARLRGACLAFLTCSRTGRAREAYPLGAPEASGKSGAQGEEPELLTKLHPAFQTPNSPGSGGFPTGRLA [I226H] |  | -0.222 | -0.508 |
| MGNITADNSSMSCTIDHTIHQTLAPVVYVTVLVVGFPANCLSLYFGYLQIKARNELGVYLCNLTVADLFYICSLPFWLQYVLQHDNWSHGDLSCQVCGILLYENIYISVGFLCCISVDRYLAVAHPFRFHQFRTLKAAVGVSVVIWAKELLTSIYFLMHEEVIEDENQHRVCFEHYPIQAWQRAINYYRFLVGFLFPICLLLASYQGILRAVRRSHGTQKSRKDQIQRLVLSTVVIFLACFLPYFVLLLVRSVWEASCDFAKGVFNAYHFSLLLTSFNCVADPVLYCFVSETTHRDLARLRGACLAFLTCSRTGRAREAYPLGAPEASGKSGAQGEEPELLTKLHPAFQTPNSPGSGGFPTGRLA [H245F] |  | -2.15 | 0.26 |
| MGNITADNSSMSCTIDHTIHQTLAPVVYVTVLVVGFPANCLSLYFGYLQIKARNELGVYLCNLTVADLFYICSLPFWLQYVLQHDNWSHGDLSCQVCGILLYENIYISVGFLCCISVDRYLAVAHPFRFHQFRTLKAAVGVSVVIWAKELLTSIYFLMHEEVIEDENQHRVCFEHYPIQAWQRAINYYRFLVGFLFPICLLLASYQGILRAVRRSHGTQKSRKDQIQRLVLSTVVIFLACFLPYHVLLLVRSVWEASCDFAKGNFNAYHFSLLLTSFNCVADPVLYCFVSETTHRDLARLRGACLAFLTCSRTGRAREAYPLGAPEASGKSGAQGEEPELLTKLHPAFQTPNSPGSGGFPTGRLA [V264N] |  | -1.08 |  |

Scores with a large standard error are left out. Not listed are two conditions whose scores span a narrow range. Read del as a deletion of the residues named and ins as an insertion between two positions. For some assays here: How much ogerin was present is not stated here.
